Inhibition data for 107 compounds are collected here from PubChem BioAssay AID434955 (Southern Research Specialized Biocontainment Screening …, 2010).

The list shows a part of the results. The main result of the screen is listed elsewhere. These columns were measured beside it and carry no call. The list favours compounds with an active or inconclusive main result.

The assay in a line: beta-lactam sensitization of Mtb H37Rv, H37Rv (AID 434955).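 Also: growth measured after seven days incubation then overnight dye step; 0% = bacteria only wells and 100% = bacteria with antibiotic.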 To be noted: M. tuberculosis H37Rv growth with meropenem, percent inhibition; measured here: primary screen without meropenem; at 25 µM.
On to `CCn1cc(C(=O)O)c(=O)c2cc(F)c(N3CCN(C(=S)NC(=O)c4ccc(Br)cc4)CC3)cc21`, for which the inhibition was -1.52%.

As to `COc1ccc(-c2ccc(=O)n(CC(=O)Nc3cccc(O)c3)n2)cc1OC`, the inhibition amounted to 0.29%.

With `COc1ccc(N2CC(C(=O)Nc3ccc4c(c3)OCO4)CC2=O)cc1` (configuration not stated), the inhibition is -0.62%.

As to `CCOc1ccc(NC(N)=O)cc1OCC`, the inhibition was -10.1%.

With `CC1CC(C)(C)n2c(O)c(N=NC(N)=S)c3cccc1c32` (configuration not stated), the inhibition is -0.27%.

Take `O=C(CC1C(=O)NCCN1Cc1cccc(F)c1)NCCCN1CCCC1=O` (configuration not stated): the inhibition was -1.68%.

`CC(C)c1ccc(C(C)NCCS(=O)(=O)c2ccc(Cl)cc2)cc1` (configuration not stated): the inhibition was 72.6%.

In the case of `CCn1cc(C(=O)NCCCN2CCC(C)CC2)c(=O)c2cc(S(=O)(=O)N3CCCC3)ccc21`, the inhibition was -8.31%.

Turning to `C/C(=N\NC(=O)c1cc2c(s1)CCC(C)C2)c1ccc[nH]1` (configuration not stated), the inhibition was determined as 60.8%.

For `C=CCn1c(SCc2ccc(C(=O)Nc3nccs3)cc2)nnc1-c1ccc(C)c(Cl)c1`, the inhibition was found to be 26.3%.

As to `O=C(c1cc(-c2ccco2)on1)N1CCOCC1`, the inhibition came out at 1.61%.

With `COc1cccc(C(=O)COC(=O)CCCC(=O)NC2CCCCC2)c1`, the inhibition is -12.1%.

As for `CCC(=O)Nc1cccc(NC(=O)CSc2nnnn2C)c1`, the inhibition is 4.82%.

Turning to `Cc1cccc2c1cnn2C(=O)CCC(=O)NCc1ccc(F)cc1`, the inhibition was -10.1%.

On to `CN(C)CCCOC(=O)c1ccc(Cl)cc1Cl`, for which the inhibition was -8.04%.

Turning to `CCOc1ccccc1NC(=O)c1ccc2c(c1)C(=O)N(CC1CCCO1)C2=O` (configuration not stated), the inhibition stood at 51.7%.

As to `CCOC(=O)N1CCN(C(=O)CSc2nnc(-c3ccccc3OC)o2)CC1`, the inhibition was 41.9%.

Turning to `CC(CN1CCC(n2nccc2NC(=O)C2CCCC2)CC1)c1ccccc1` (configuration not stated), the inhibition worked out at 0.64%.

`Cc1ccnc(NC(=O)c2ccc(Cl)s2)c1`: the inhibition is 11.2%.

Regarding `O=C(O)C1C2C=CC(C2)C1C(=O)NCc1ccoc1` (configuration not stated), the inhibition was -5.23%.

As for `Cc1ccc(NC(=O)c2ccc(Cn3cc(Cl)cn3)o2)c(C)c1`, the inhibition is 0.24%.

Take `COc1cc(NC(=O)c2ccc(CNc3c(N4CCCC4)c(=O)c3=O)cc2)cc(OC)c1OC`: the inhibition was -5.79%.

As for `Cc1ccc(OCc2nnc(SCC(=O)Nc3cc(C)on3)n2C)cc1`, the inhibition is -3.47%.

Take `CC1Cn2c(nnc2-c2ccccc2O)S1` (configuration not stated): the inhibition came to 1.72%.

For the compound `CC(C)c1csc(CN2CCC(CCC(=O)NCC3CCCO3)CC2)n1` (configuration not stated), the inhibition is -8.39%.

Consider `CCn1cc(S(=O)(=O)c2cccc(C)c2)c(=O)c2cc(F)c(N3CCN(C)CC3)cc21`, for which the inhibition was 4.09%.

Regarding `CCn1c2ccccc2c2cc(/C=N/NC(=O)c3ccccc3)ccc21`, the inhibition came out at 6.16%.

Turning to `Cn1c(=O)[nH]c(=O)c2c1nc(Br)n2CCCSc1nc2ccccc2o1`, the inhibition turned out to be 0.84%.

On to `CN1CCC(Oc2ccccc2Sc2ccc(C(F)(F)F)cc2)CC1`, for which the inhibition was determined as 51.2%.

As for `CCOC(=O)N1CCN(C(=O)CSCC(=O)Nc2nc(-c3ccc(OC)cc3)cs2)CC1`, the inhibition is -11.8%.

Regarding `CCOc1ccccc1/C=N/n1c(C2CCCCC2)n[nH]c1=S`, the inhibition stood at 4.1%.

With `COc1cc(-c2nnc(SCc3cc(=O)oc4cc(C)ccc34)o2)cc(OC)c1OC`, the inhibition was -12.1%.

`COc1cc(C)ccc1OCc1cc(C(=O)NCCN2CCOCC2)no1`: the inhibition was -5.05%.

For the compound `c1ccc2c(c1)Cn1nc(Cc3nc4c(s3)CCCC4)nc1-2`, the inhibition is 17%.

For `CC(=O)OCC(=O)Nc1ccc(C(C)=O)cc1`, the inhibition is 28.2%.

As to `COc1cccc(C(=O)NNc2c3ccccc3nc3ccccc23)c1`, the inhibition was 12.7%.

As for `NC(=S)N/N=C/c1ccc([N+](=O)[O-])cc1`, the inhibition came out at 42.6%.

Turning to `O=C(CCS(=O)(=O)c1ccccc1)N(CCCN1CCOCC1)c1nc2c(F)cccc2s1`, the inhibition came out at 49.6%.

For `Cc1cc(=O)c2ccc3ccccc3c2[nH]1`, the inhibition turned out to be 10.2%.

With `CCCCn1c(N2CCCC2)nc2c1c(=O)[nH]c(=O)n2C`, the inhibition was -8.87%.

In the case of `Cc1cccc(C)c1NC(=O)CN(C)C(=O)c1ccc(COc2ccccc2)cc1`, the inhibition came out at 11.8%.

Consider `Cc1nn(C)cc1S(=O)(=O)N1CCN(c2ccccc2)CC1`, for which the inhibition came out at 5.84%.

In the case of `CCn1c(=O)c2cc(C(=O)N(C)c3ccccc3F)sc2c2ccccc21`, the inhibition was determined as 2.55%.

As for `COCc1ccc(C(=O)NC2CCCc3c2cnn3-c2ccc(C)c(C)c2)o1` (configuration not stated), the inhibition came out at 2.57%.

On to `O=C(Cc1ccc2c(c1)OCCO2)N1CCN(S(=O)(=O)c2cccc(C(F)(F)F)c2)CC1`, for which the inhibition stood at 7.34%.

As to `O=C(NC1CCCCCCC1)c1ccc(Br)cc1`, the inhibition came out at 2.94%.

Turning to `COc1cc(-c2nn3c(-c4cccc(C)c4)nnc3s2)cc(OC)c1OC`, the inhibition is -4.61%.

Take `CCc1nc(SCC(=O)Nc2ccc([N+](=O)[O-])cc2)n[nH]1`: the inhibition is -2.26%.

In the case of `Cc1ccccc1CN1CCC(CNC(=O)Nc2ccc(F)cc2F)CC1`, the inhibition was -0.41%.

For the compound `CCCC1O[C@@H]2CC3C4CCC5=CC(=O)C=C[C@]5(C)C4C(OC(C)=O)C[C@]3(C)[C@]2(C(=O)COC(C)=O)O1` (some centres not stated), the inhibition worked out at 10.7%.

As for `O=C(Nc1ccc(S(=O)(=O)N2CCCCC2)cc1)C1CCCN(C(=O)c2ccc(Cl)cc2)C1` (configuration not stated), the inhibition amounted to 8.02%.

On to `O=C(CN1C(=O)c2cccc([N+](=O)[O-])c2C1=O)N1CCN(c2ccc(F)cc2)CC1`, for which the inhibition is 15.1%.

Take `Cc1ccc(S(=O)(=O)c2nc(-c3ccccc3F)oc2N2CC(C)OC(C)C2)cc1` (configuration not stated): the inhibition is -2.28%.

For `CCn1c(SCC(=O)Nc2nc(C)c(C)s2)nnc1-c1ccco1`, the inhibition was -1.58%.

Consider `COc1ccc(CCNC(=O)Cc2ccc3c(c2)OCO3)cc1OC`, for which the inhibition is -0.39%.

In the case of `COc1ccc(CN2CCc3ccc(NC(=O)c4ccncc4)cc3C2)c(F)c1`, the inhibition amounted to 3.92%.

As for `Cn1c(=O)c(=O)n(C)c2cc(N3CCCCC3)c(NS(=O)(=O)c3ccc([N+](=O)[O-])cc3)cc21`, the inhibition stood at 1.01%.

Take `CCOC(=O)C(Cc1ccccc1)NC(C)=O` (configuration not stated): the inhibition is -0.06%.

On to `N#Cc1ccc(-c2nc3cc(Cl)ccc3c(=O)n2O)cc1`, for which the inhibition amounted to 77.5%.

For the compound `CCOC(=O)c1[nH]c(C)c(CCC(=O)O)c1C`, the inhibition was -0.75%.

For `Cc1ccnc(N2CCC(C(=O)Nc3cccc(C(F)(F)F)c3)CC2)n1`, the inhibition stood at 91.5%.

With `Cn1c(/C=C/c2ccc(Br)cc2)c([N+](=O)[O-])c(=O)n(C)c1=O`, the inhibition is 32.7%.

For the compound `COc1ccc(C(=O)Nc2nc3ccc(OC)cc3s2)cc1`, the inhibition was found to be 45.5%.

For the compound `CC1CCN(c2oc(-c3ccccc3F)nc2C#N)CC1`, the inhibition is -2.56%.

For the compound `O=[N+]([O-])c1cccc(NC(=S)Nc2nc(-c3ccc(Cl)cc3Cl)cs2)c1`, the inhibition was determined as 46.6%.

Turning to `Cc1onc(-c2ccccc2)c1C(=O)Nc1ccc(-c2nnc3n2CCCCC3)cc1`, the inhibition is 15.7%.

Take `Cc1cccc(CC(=O)Nc2c3c(nn2-c2cccc(Cl)c2)CS(=O)C3)c1` (configuration not stated): the inhibition was 0.89%.

As for `Cc1cccc(CC(=O)N2CCC(n3nccc3NC(=O)C3CC3)CC2)c1`, the inhibition is -1.86%.

As for `O=C(NC1CCCc2ccccc21)C1CCN(S(=O)(=O)c2ccccc2)CC1` (configuration not stated), the inhibition was -0.49%.

Take `CC(C)Cn1c2c(c(O)c(C(=O)Nc3ccc(F)cc3)c1=O)CCCC2`: the inhibition came out at 25.4%.

For the compound `O=C(O)C1CCCCC1C(=O)NC1CCCCC1` (configuration not stated), the inhibition was 6.52%.

As to `CN(CCCC(=O)NCc1ccc2c(c1)OCO2)S(=O)(=O)c1ccc([N+](=O)[O-])cc1`, the inhibition was -2.25%.

For `C=CCCC(=O)N1CCC(n2nccc2NC(=O)c2ccccc2C)CC1`, the inhibition is -2.71%.

In the case of `CCOc1ccc(NC(=O)CC2C(=O)N(c3ccccc3)C(=O)N2CCc2cccs2)cc1` (configuration not stated), the inhibition is 1.22%.

In the case of `COc1cc(/C=N/NC(=O)c2ccc3c(c2)OCCO3)cc(Cl)c1O`, the inhibition is 7.78%.

For `Oc1ccccc1/C=N/n1c(COc2ccccc2)n[nH]c1=S`, the inhibition stood at 6.84%.

With `Cc1cccc(/C=N\NC(=O)c2csnn2)c1`, the inhibition was 52.1%.

In the case of `COc1ccc(C2N(c3ccc(F)cc3)C(=O)C3CCCN32)cc1` (configuration not stated), the inhibition is -7.75%.

In the case of `CC(=O)c1cccc(S(=O)(=O)N2CCCC(c3nc(-c4ccc(C)o4)no3)C2)c1` (configuration not stated), the inhibition was determined as 1.72%.

As to `Cn1cc(CN2CCc3ccccc3C2)c2ccccc21`, the inhibition turned out to be 4%.

For the compound `Cc1cccc(/C=N/NC(=O)c2cc(C)nc3ccccc23)n1`, the inhibition was -12%.

On to `CC(C)=CCCC(C)CN1CCC(n2nccc2NC(=O)C2CCCC2)CC1` (configuration not stated), for which the inhibition turned out to be 3.75%.

As to `COc1cccc(C(=O)N(CN2CCCC2=O)c2cc(C)on2)c1`, the inhibition amounted to 1.12%.

Turning to `Cc1nn(C)c(C)c1CCC(=O)N1CCCC(N2CCN(c3ccc(F)cc3)CC2)C1` (configuration not stated), the inhibition was 1.43%.

With `O=C1c2cccc3c(N4CCCCC4)ccc(c23)C(=O)N1c1ccccn1`, the inhibition was found to be 19.5%.

Regarding `COCCCn1c(=O)/c(=C\c2cccc(OC)c2OC)s/c1=C(/C#N)C(=O)Nc1ccc(C(=O)O)cc1`, the inhibition came out at 47.4%.

Take `CCOc1cccc2cc(C(=O)NCc3cccnc3)c(=O)oc12`: the inhibition came out at 6.22%.

Take `Cc1nn(-c2ccccc2)c(Cl)c1CN(C(=O)CCl)c1cccc2ccccc12`: the inhibition turned out to be 20.9%.

Turning to `O=C(c1cccc(Br)c1)N1CCN(C2=NS(=O)(=O)c3ccccc32)CC1`, the inhibition was -5.54%.

Regarding `COCCn1c(SCC(=O)Nc2ccc(F)cc2)nc2c([nH]c3ccccc32)c1=O`, the inhibition stood at 3.89%.

For the compound `COc1ccc(OC)c(C(=O)COC(=O)c2ccccc2O)c1`, the inhibition is -1.97%.

As for `CC(C)[C@H](NC(=O)OCc1ccccc1)C(=O)OCC(=O)NC1(C#N)CCCC1`, the inhibition was determined as 9.03%.

For the compound `CC(C)(C)c1nnc2sc(SCC(=O)c3cccs3)nn2c1=O`, the inhibition turned out to be 45.4%.

`CCOC(=O)c1cnc(SCC(=O)Nc2ccc(NC(=O)CC)c(OC)c2)nc1N`: the inhibition amounted to 0.82%.

As for `CCCC(=O)N(Cc1cc(=O)[nH]c2ccccc12)c1ccc(C)cc1`, the inhibition was 6.43%.

For the compound `COc1ccc(OCc2cc(C(=O)N3CCCCCC3)no2)c(Cl)c1`, the inhibition is 2.59%.

Consider `CCN(CC)C(=O)CSc1nnc2sc3ccccc3n12`, for which the inhibition was -2.75%.

Turning to `CCOC(=O)c1ccc(NC(=O)C2CC2)cc1`, the inhibition is -0.06%.

Regarding `CC(C)OC(=O)c1sc2nc(-c3ccccc3)ccc2c1N`, the inhibition turned out to be 1.65%.

As to `O=C(Nc1ccnn1C1CCN(C(=O)c2ccc(F)c(Cl)c2)CC1)C1CC1`, the inhibition turned out to be 1.76%.

In the case of `O=C(N/N=C/c1ccccc1O)C1SCCCS1`, the inhibition amounted to 13.3%.

Take `CCOc1ccc(N(CC(=O)NCCc2ccc(F)cc2)S(=O)(=O)c2ccccc2)cc1`: the inhibition amounted to 1.12%.

On to `Cc1ccc(C(=O)COC(=O)C(C)N2C(=O)C3C4CCC(C4)C3C2=O)cc1` (configuration not stated), for which the inhibition was 1.13%.

In the case of `COc1cc(/C=C2\N=C(C)OC2=O)cc(Cl)c1OC(C)=O`, the inhibition was found to be 8.36%.

As for `COC(=O)c1c(N2C(=O)CCC2=O)sc2c1CCCC2`, the inhibition is -9.3%.

Turning to `CCOC(=O)c1c(C)oc2c1c(CN1CCN(C(=O)OCC)CC1)c(O)c1ccccc12`, the inhibition is 2.51%.

Consider `COc1ccccc1-c1oc2ccccc2c1C#CC(C)(C)O`, for which the inhibition came out at 74.9%.
